Test [1] concerns the target T1, σ1 receptor (Homo sapiens, UniProt Q99720). The note with it: 10 μM.
The target in test [2] is T1, σ1 receptor. Description: biochemical. Particulars: read-out: Inhibition (%) Sigma1 (σ1).
Another test deals with Sprague-Dawley rats. The note with it: male rats, antagonist without agonist-antagonist, hydrochloride.

Molecules are shown by their SMILES. Where a name gives a salt, the structure may show the parent alone. Read-outs that look alike come from different tables or passages of the source.

T1 sequence (Q99720 whole entry, species assumed): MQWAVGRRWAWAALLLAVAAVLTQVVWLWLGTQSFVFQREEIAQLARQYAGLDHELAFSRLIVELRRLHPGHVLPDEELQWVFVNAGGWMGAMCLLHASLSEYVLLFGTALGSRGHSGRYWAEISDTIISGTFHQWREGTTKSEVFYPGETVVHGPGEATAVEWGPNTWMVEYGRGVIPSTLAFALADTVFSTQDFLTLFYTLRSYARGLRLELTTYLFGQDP

Take `Oc1ccc2c3c1O[C@H]1[C@@H](O)CC[C@@]4(O)[C@@H](C2)N(CC2CCC2)CC[C@]314` [Nalbuphine, Nalbuphine hydrochloride]: at σ1 receptor [1], the “binding to the σ1 receptor (in words)” value is listed as “does not bind to the σ1 receptor”. Also, the inhibition (in general, the relative decrease from the control value, in per cent) at 10 µM on σ1 receptor [2] is -2%.
In the case of `C=CCN1CC[C@]23c4c5ccc(O)c4O[C@H]2C(=O)CC[C@@]3(O)[C@H]1C5` [Naloxone, naloxone hydrochloride], the “effect on nociceptive threshold when administered alone / with saline” value in the test with Sprague-Dawley rats is “did not affect nociceptive threshold”; in the test with Sprague-Dawley rats (listed as naloxone), “did not have an effect on nociceptive threshold”. In addition, the inhibition at 10 µM at σ1 receptor [2] came out at 9%.
For `CC(C)=CCN1CCC2(C)c3cc(O)ccc3CC1C2C.CC(O)C(=O)O` (stereo not drawn) [Pentazocine, Pentazocine lactate], on σ1 receptor [2], the inhibition at 10 µM was 93%.

The values above are taken from patent US10167295B2 (priority 2013, dated 2019).
